# Test results as given in paper PMC6919601, “Identification of Plasmodium dipeptidyl aminopeptidase allosteric inhibitors by high throughput screening” (PLoS ONE, 2019).
# Out of some 110,000 compounds screened, about 230 (0.21%) showed an effect of 50% or more. The list shows a part of the results.
# Molecular target: DPAP1 (Plasmodium falciparum, UniProt Q8IIJ9)
# Assay: primary screen, percent inhibition; read by cleavage of a fluorogenic dipeptide substrate; higher = more effect of the substance
# Set-up: species or system P. falciparum D10 trophozoite lysates; single well
# 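Also: 30 min substrate incubation versus DMSO and 10 µM JCP410 controls.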
# Sequence of DPAP1 (Q8IIJ9 whole entry, looked up): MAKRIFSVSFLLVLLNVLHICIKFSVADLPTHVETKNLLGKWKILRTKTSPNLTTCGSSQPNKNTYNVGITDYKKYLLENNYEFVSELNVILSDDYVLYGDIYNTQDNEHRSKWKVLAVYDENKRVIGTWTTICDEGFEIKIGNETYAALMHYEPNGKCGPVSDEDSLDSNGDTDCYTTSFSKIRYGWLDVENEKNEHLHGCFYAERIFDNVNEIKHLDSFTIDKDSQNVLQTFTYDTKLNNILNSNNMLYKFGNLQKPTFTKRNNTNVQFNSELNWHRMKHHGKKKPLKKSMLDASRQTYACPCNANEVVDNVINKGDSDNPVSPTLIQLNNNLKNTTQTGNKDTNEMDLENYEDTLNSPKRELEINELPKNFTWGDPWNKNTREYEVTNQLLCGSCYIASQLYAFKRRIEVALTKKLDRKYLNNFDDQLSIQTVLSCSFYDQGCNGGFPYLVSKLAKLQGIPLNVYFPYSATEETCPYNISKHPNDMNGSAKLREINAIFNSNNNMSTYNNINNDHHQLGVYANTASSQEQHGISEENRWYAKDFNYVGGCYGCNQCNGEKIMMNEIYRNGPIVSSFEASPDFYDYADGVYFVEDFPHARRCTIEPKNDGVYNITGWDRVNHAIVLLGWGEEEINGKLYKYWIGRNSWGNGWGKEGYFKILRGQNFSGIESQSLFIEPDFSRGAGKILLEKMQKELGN
row,SMILES,% Inhibition @ 10 uM
1,CC(=O)N1CCC(N2C[C@@H]3C[C@H](C2)c2cccc(=O)n2C3)CC1,-1.85%
2,Cc1ccc(C(=O)N/C(=C\c2ccc(F)cc2)C(=O)NCCN2CCOCC2)cc1,8.01%
3,CCOC(=O)c1[nH]c2ccccc2c1NC(=O)c1ccc(S(=O)(=O)N2CCCCC2)cc1,-4.23%
4,CCOC(=O)c1nnn(-c2nonc2N)c1COc1ccc(F)cc1,3.25%
5,O=c1cc(CSc2nc3ccsc3c(=O)n2Cc2ccc3c(c2)OCO3)c2ccc(O)cc2o1,1.24%
6,c1ccc(-c2nc3ccccc3c3nnnn23)cc1,5.64%
7,CCOC(=O)C1=C(C)N=C(C)/C(=C(/O)OCC)C1c1ccco1 (centres unmarked),-9.55%
8,Cc1cnc(C(=O)NC2CCN(c3ncccn3)CC2)cn1,0.596%
9,COc1ccc(CCNC(=O)/C(=C/c2cccnc2)NC(=O)c2ccccc2)cc1OC,3.79%
10,COc1cc(-c2nnc3sc(COc4ccccc4Cl)nn23)cc(OC)c1OC,16.7%
11,Cc1cc(Br)ccc1OCC(=O)Nc1ccc(F)cc1,0.795%
12,CC(=O)N1CCC(NCc2ccc(Cl)c(Cl)c2)CC1,-9.37%
13,O=C1CC(NC23CC4CC(CC(C4)C2)C3)C(=O)N1c1cccc(Cl)c1 (centres unmarked),-9.24%
14,Cc1noc2ncnc(NCCCN3CCN(C)CC3)c12,-10.6%
15,Cc1cc(Br)ccc1NC(=O)c1ccc(Cl)cc1,-0.546%
16,CCc1ccc2nc(N3CCC(C(=O)NCCCN(CC)CC)CC3)sc2c1,2.59%
17,COc1ccc(C2=NN(CCC(=O)NC3CCCCCC3)C(=O)CC2)cc1,2.35%
18,O=C(NC12CC3CC(CC(C3)C1)C2)c1cccc([N+](=O)[O-])c1,-0.856%
19,Cc1cccc(NC(=O)c2c(F)cccc2F)c1C,2.26%
20,CCC1CCCCN1C(=O)c1cc(-c2ccccc2OC)on1 (centres unmarked),-5.52%
21,COc1cc(OC)cc(C(=O)Nc2cccc(Cl)c2)c1,-3.5%
22,O=C(Cc1cccs1)N1CCN(c2ccc(OCc3ccccc3)cc2)CC1,5.97%
23,CCOc1ccccc1C1NC(S)=NC(C)=C1C(=O)OCc1ccccc1 (centres unmarked),1.38%
24,Cc1nc2c3cccnc3nn2c(C)c1CCC(=O)NCCc1ccc(Cl)cc1,3.2%
25,COc1ccc(/C=C2\SC(N3CCCCC3)=NC2=O)cc1,5.7%

row,SMILES,% Inhibition @ 10 uM
1,CCN(CC)C(=O)CN(c1ccccc1F)S(=O)(=O)c1ccccc1,3.66%
2,CCCCNC(=O)c1cc(-c2cccc(O)c2)on1,-1.84%
3,CC1(C)CC(=O)c2cnc(NCc3ccccc3)nc2C1,1.98%
4,CCCNC(=O)c1ccc2nc(SCc3ccc(F)cc3)n(C)c2c1,-0.788%
5,Fc1cccc(F)c1CNc1ccc2[nH]ncc2c1,1.57%
6,O=C(O)c1ccc(N2CCCCC2)cc1,3.25%
7,Oc1cc(-c2ccncc2)[nH]n1,0.503%
8,O=C(CN(c1ccc(F)cc1)S(=O)(=O)c1ccccc1)NCc1ccncc1,4.61%
9,Cc1ccc(Cl)cc1NC(=O)C1CC(=O)N(c2cccc(Cl)c2C)C1 (centres unmarked),1.62%
10,CC(=O)Nc1ccc(C#N)c(C(C)(C)C)c1,-3.83%
11,CCN1CCCC1CNC(=O)Cn1ncc2c3ccccc3n(Cc3ccccc3C)c2c1=O (centres unmarked),-3.35%
12,CN(C)c1ccc(NC2=CC(=O)c3ccccc3C2=O)cc1,16%
13,COc1cc(NC(=O)C2CC(=O)N=C(N)S2)c(OC)cc1Cl (centres unmarked),-4.86%
14,Cc1ccc(-c2nc(C#N)c(N3CCN(C)CC3)o2)cc1,-1.33%
15,Cc1cc(C)cc(OCCc2c(C)n[nH]c2C)c1,-1.2%
16,COc1ccc(N2CCN(c3oc(COc4cccc(Cl)c4)nc3C#N)CC2)cc1,-4.67%
17,Cc1cccc(-n2cnc3cc(C(=O)N4CCCCC4)ccc32)c1,-5.64%
18,CCOc1ccc(NC(=O)C(C)Sc2nc3cc(F)ccc3[nH]2)cc1 (centres unmarked),-3.69%
19,CCOC(=O)/C(C#N)=C/c1c(Oc2ccccc2Cl)nc2c(C)cccn2c1=O,-1.43%
20,Cc1ccc(S(=O)(=O)N=Nc2c(O)[nH]c3ccccc23)cc1,5.98%
21,Cc1ccc(OCC(=O)NC(Cc2ccccc2)C(=O)O)cc1 (centres unmarked),-1.46%
22,CCOC(=O)c1c(/N=C/C2C(=O)c3ccccc3C2=O)sc2c1CCCC2,-5.01%
23,CN1C(=O)N(c2cccc(Cl)c2)C(NC(=O)Nc2ccc(Cl)cc2)C1(C)C (centres unmarked),3.53%
24,CCC(C)(C)C1CCc2c(sc(NC(=O)C3CC3)c2C(N)=O)C1 (centres unmarked),1.49%
25,COc1ccc(C2=NS(=O)(=O)N(C)C(C(=O)N3CCCCC3C)=C2)cc1 (centres unmarked),6.8%
